The supplement of paper PMC12217912
Some of the results follow. Sequences were assembled here from the parent chain. Inactive controls read about 0.05.

B1: TEV protease; numbered along this chain (parent)
chain: MGESLFKGPRDYNPISSSICHLTNESDGHTTSLYGIGFGPFIITNKHLFRRNNGTLVVQSLHGVFKVKDTTTLQQHLVDGRDMIIIRMPKDFPPFPQKLKFREPQREERICLVTTNFQTKSMSSMVSDTSCTFPSGDGIFWKHWIQTKDGQCGSPLVSTRDGFIVGIHSASNFTNTNNYFTSVPKNFMELLTNQEAQQWVSGWRLNADSVLWGGHKVFMVKPEEPFQPVKEATQL

Variants of: B1
Assay: raw area under fraction-flipped curve 0-4 h after induction (AUC4h, not background-subtracted), DNA-recorder readout of cleavage of the substrate (dimensionless); higher = more cleavage of the substrate by the protease variant
Conditions: temperature: 34 °C; time window: 0-4 h after rhamnose induction
Description: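 In vivo DNA recorder in E. coli TOP10(DE3) ΔrhaA at 34 °C. Each TEVp single-site mutant (parent TEVp 0) is paired with a single-site variant of the 7-mer TEVs (canonical ENLYFQ|S). The substrate sits between flexible linkers in a Bxb1-sfGFP-TEVs-SsrA fusion, so cleavage stabilises Bxb1 and speeds flipping of a recombination array, read by NGS. The value is the raw area under the fraction-flipped curve over 0-4 h after rhamnose induction (AUC4h), with ≥20 reads per time point. It is not background-subtracted; inactive controls average about 0.047.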
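Further: Bxb1 expression induced with 0.2% (w/v) L-rhamnose at OD600 near 0.5, cultures sampled hourly, flipped fraction per protease–substrate barcode pair counted by paired-end Illumina sequencing.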

Variant | area with substrate ENLYAQS | area with substrate ENLYEQS | area with substrate ENLYHQS | area with substrate ENLYMQS | area with substrate ENLYQQS | area with substrate ENLYRQS | area with substrate ENLYSQS | area with substrate ENLYYQS | area with substrate ENLYGQS | area with substrate ENLYIQS | area with substrate ENLYKQS | area with substrate ENLYNQS | area with substrate ENLYPQS | area with substrate ENLYVQS | area with substrate ENLYLQS | area with substrate ENLYTQS | area with substrate ENLYWQS | area with substrate ENLYDQS | area with substrate ENLYCQS
MGESLFKGPRDYNPISSSICHLTNESDGHTTSLYGIGFGPFIITNKHLFRRNNGTLVVQSLHGVFKVKDTTTLQQHLVDGRDMIIIRMPKDFPPFPQKLKFREPQREERICLVTTNFQTKSMSSMVSDTSCTFPSGDGIFWKHWIQTKDGQCGSPLVSTRDGFIVGIHSASNFTNTNNYFTSVPKNFMELLTNQEAQQWVSGWRLNADSVLWGGHKVFYVKPEEPFQPVKEATQL [M219Y] | 0.0783 | 0.0639 | 0.0517 | 0.122 | 0.082 | 0.0634 | 0.0646 | 0.0756 | – | – | – | – | – | – | – | – | – | – | –
MGESLFKGPRDYNPISSSICHLTNESDGHTTSLYGIGFGPFIITNKHLFRRNNGTLVVQSLHGVFKVKDTTTLQQHLVDGRDMIIIRMPKDFPPFPQKLKFREPQREERICLVTTNFQTKSMSSMVSDTSCTFPSGDGIFWKHWIQTKDGQCGSPLVSTRDGFIVGIHSASNFTNTNNYFTSVPKNFMELLTNQEAQEWVSGWRLNADSVLWGGHKVFMVKPEEPFQPVKEATQL [Q198E] | 0.0858 | 0.0723 | 0.0631 | 0.105 | 0.0617 | 0.0702 | – | – | 0.0593 | 0.142 | 0.0562 | 0.0703 | 0.0657 | 0.16 | – | – | – | – | –
MGESLFKGPRDYNPISSSICHLTNESDGHTTSLYGIGFGPFIITNKHLFRRNNGTLVVQSLHGVFKVKDTTTLQQHLVDGRDMIIIRMPKDFPPFPQKLKFREPQREERICLVTTNFQTKSMSSMVSDTSCTFPSGDGIFWKHWIQTKDGQCGSPLVSTRDGFIVGIHSASNFTNTNNYFTSVPKNFMELLTNQEAQQWVSGWRLNADSVLWGGHKVFMVKPEEPFQPVKEATLL [Q234L] | 0.0731 | 0.0742 | 0.0693 | 0.0771 | – | 0.0638 | – | 0.0575 | 0.0693 | – | – | 0.0733 | 0.0662 | 0.123 | 0.0725 | – | – | – | –
MGESLFKGPRDYNPISSSICHLTNESDGHTTSLYGIGFGPFIITNKHLFRRNNGTLVVQSLHGVFKVKDTTTLQQHLVDGRDGIIIRMPKDFPPFPQKLKFREPQREERICLVTTNFQTKSMSSMVSDTSCTFPSGDGIFWKHWIQTKDGQCGSPLVSTRDGFIVGIHSASNFTNTNNYFTSVPKNFMELLTNQEAQQWVSGWRLNADSVLWGGHKVFMVKPEEPFQPVKEATQL [M83G] | 0.0465 | 0.0511 | 0.0562 | – | 0.0668 | 0.0485 | – | 0.0618 | 0.0427 | 0.0545 | 0.0505 | 0.0604 | – | 0.0647 | – | 0.0327 | 0.0378 | – | –
MGESLFKGPRDYNPISSSICHLTNESDGHTTSLYGIGFGPFIITNKHLFRRNNGTLVVQSLHGVFKVKDTTTLQQHLVDGRDMIIIRMPKDFPPFPQKLKFREPQREERICLVTTNFQTKSMSSMVSDTSCTFPVGDGIFWKHWIQTKDGQCGSPLVSTRDGFIVGIHSASNFTNTNNYFTSVPKNFMELLTNQEAQQWVSGWRLNADSVLWGGHKVFMVKPEEPFQPVKEATQL [S135V] | 0.0428 | 0.0557 | 0.0379 | 0.0665 | 0.0603 | – | 0.0649 | – | – | 0.0628 | 0.0709 | 0.061 | 0.0561 | 0.0779 | – | – | 0.0624 | 0.0637 | –
MGESLFKGPRDYNPISSSICHLTNESDGHTTSLYGIGFGPFIITNKHLFRRNNGTLVVQSLHGVFKVKDTTTLQQHLVAGRDMIIIRMPKDFPPFPQKLKFREPQREERICLVTTNFQTKSMSSMVSDTSCTFPSGDGIFWKHWIQTKDGQCGSPLVSTRDGFIVGIHSASNFTNTNNYFTSVPKNFMELLTNQEAQQWVSGWRLNADSVLWGGHKVFMVKPEEPFQPVKEATQL [D79A] | 0.0698 | 0.0644 | 0.0622 | – | – | 0.0534 | – | – | 0.0531 | 0.103 | 0.0734 | – | – | 0.117 | 0.0875 | 0.0271 | 0.0796 | – | –
MGESLFKGPRDYNPISSSICHLTNESDGHTTSLYGIGFGPFIITNKHLFRRNNGTLVVQSLHGVFKVKDTTTLQQHLVDGRDMIIIRMPKDFPPFPQKLKFREPQREERICLVTTNFQTKSMSSMVSDTSCTFPSGDGIFWKHWIQTKDGQCGSPLVSTRDGFIVGIHSASNFTNTNNYFTKVPKNFMELLTNQEAQQWVSGWRLNADSVLWGGHKVFMVKPEEPFQPVKEATQL [S182K] | 0.064 | 0.0595 | 0.0502 | 0.0632 | 0.0539 | 0.0522 | 0.0586 | – | 0.0615 | – | – | 0.0622 | 0.0636 | 0.0024 | – | 0.0745 | 0.0729 | 0.0587 | –
MGESLFKGPRDYNPISSSICHLTNESDGHTTSLYGIGFGPFIITNKHLFRRNNGTLVVQSLHGVFKVKDTTTLQQHLVDGRDMIIIRMPKDFPPFPQKLKFREPQREERICLVTTNFQTKSMSSMVSDTSCTFPSGDGIFWKHWIQTKDGQCGSPLVSTRDGFMVGIHSASNFTNTNNYFTSVPKNFMELLTNQEAQQWVSGWRLNADSVLWGGHKVFMVKPEEPFQPVKEATQL [I164M] | 0.0595 | 0.0619 | 0.0623 | 0.0608 | 0.0509 | 0.0547 | 0.0845 | – | 0.059 | 0.0866 | 0.06 | 0.0584 | 0.0639 | 0.0907 | 0.0643 | 0.0724 | 0.0666 | 0.0692 | 0.0803
MGESLFKGPRDYNPISSSICHLTNESDGHTTSLYGIGNGPFIITNKHLFRRNNGTLVVQSLHGVFKVKDTTTLQQHLVDGRDMIIIRMPKDFPPFPQKLKFREPQREERICLVTTNFQTKSMSSMVSDTSCTFPSGDGIFWKHWIQTKDGQCGSPLVSTRDGFIVGIHSASNFTNTNNYFTSVPKNFMELLTNQEAQQWVSGWRLNADSVLWGGHKVFMVKPEEPFQPVKEATQL [F38N] | 0.0641 | – | 0.0599 | – | 0.0591 | 0.0571 | 0.0617 | – | 0.0412 | 0.0978 | 0.0486 | 0.0552 | 0.0608 | – | 0.106 | 0.0704 | – | 0.0696 | –
